# The other results are listed elsewhere or left out.
# B1: AT1G73650(15) (Arabidopsis thaliana), F4HRY1 (protein)
# chain: MGTVLDSHFLALTAIVTVIYQFIFFVITALFKFDQVTDFAGSTNFVILAVLTLVLKASWHFRQIVLTLLVVVWGLRLGIFLLMETRILQWGEDRRFDEQRGNIVRLIIFWTLQAVWVWTVSLPLTLVNASDGGGSLKPADVIGWTMETWVFGFLIEAAADQQKLSFKNSPENRGKWCDVGVWKYSRHPNYFGEMETLLWWGIFVAASPVLEGAEYLVIFGPLFLTLLLLFVSGIPLLEASADKKHGNSGAYRSYKKTTSPLILFPRGVYGNLPGWFKTVFLFEFPFYSRNLPQEGRLQNSKEKEVKDD
# Tests used:
# Assay in all cases: glycan array binding signal (z-score within array); higher = stronger binding
# Conditions in all cases: glycan notation: IUPAC condensed, linker removed
# [1] = target: Gal(b1-3)GlcNAc(b1-2)Man(a1-3)[Gal(b1-3)GlcNAc(b1-2)Man(a1-6)]Man(b1-4)GlcNAc(b1-4)GlcNAc
# Outline: (§1)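 Arrays were curated from the Consortium for Functional Glycomics database, 3228 in total, and kept only where the protein sequence was available. Binding is expressed as a within-array Z-score. This score was averaged across arrays of the same protein sequence at different concentrations or buffers and across linkers, and negative values can be read as non-binding.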
# [2] = target: Gal(b1-3)GlcNAc(b1-2)Man(a1-3)[Gal(b1-3)GlcNAc(b1-2)Man(a1-6)]Man(b1-4)GlcNAc(b1-4)[Fuc(a1-6)]GlcNAc
# Outline: as §1
# [3] = target: Gal(b1-3)GlcNAc(b1-2)Man(a1-3)[GlcNAc(b1-4)][Gal(b1-3)GlcNAc(b1-2)Man(a1-6)]Man(b1-4)GlcNAc(b1-4)GlcNAc
# Outline: as §1
# [4] = target: Gal(b1-3)GlcNAc(b1-2)[Gal(b1-3)GlcNAc(b1-6)]Man(a1-6)[Gal(b1-3)GlcNAc(b1-2)Man(a1-3)]Man(b1-4)GlcNAc(b1-4)GlcNAc
# Outline: as §1
# [5] = target: Gal(b1-3)GlcNAc(b1-3)Gal(b1-3)GlcNAc
# Outline: as §1
# [6] = target: Gal(b1-3)GlcNAc(b1-3)Gal(b1-4)Glc
# Outline: as §1
# [7] = target: Gal(b1-3)GlcNAc(b1-3)Gal(b1-4)GlcNAc
# Outline: as §1
# [8] = target: Gal(b1-3)GlcNAc(b1-3)Gal(b1-4)GlcNAc(b1-2)Man(a1-3)[Gal(b1-3)GlcNAc(b1-3)Gal(b1-4)GlcNAc(b1-2)Man(a1-6)]Man(b1-4)GlcNAc(b1-4)GlcNAc
# Outline: as §1
# [9] = target: Gal(b1-3)GlcNAc(b1-3)Gal(b1-4)GlcNAc(b1-2)[Gal(b1-3)GlcNAc(b1-3)Gal(b1-4)GlcNAc(b1-6)]Man(a1-6)[Gal(b1-3)GlcNAc(b1-3)Gal(b1-4)GlcNAc(b1-2)Man(a1-3)]Man(b1-4)GlcNAc(b1-4)[Fuc(a1-6)]GlcNAc
# Outline: as §1
# [10] = target: Gal(b1-3)GlcNAc(b1-3)Gal(b1-4)GlcNAc(b1-3)Gal(b1-4)GlcNAc(b1-2)[Gal(b1-3)GlcNAc(b1-3)Gal(b1-4)GlcNAc(b1-3)Gal(b1-4)GlcNAc(b1-6)]Man(a1-6)[Gal(b1-3)GlcNAc(b1-3)Gal(b1-4)GlcNAc(b1-3)Gal(b1-4)GlcNAc(b1-2)Man(a1-3)]Man(b1-4)GlcNAc(b1-4)[Fuc(a1-6)]GlcNAc
# Outline: as §1
# [11] = target: Gal(b1-3)GlcNAc(b1-3)Gal(b1-4)GlcNAc(b1-6)[Gal(b1-3)GlcNAc(b1-3)]Gal(b1-4)Glc
# Outline: as §1
# [12] = target: Gal(b1-3)GlcNAc(b1-3)Gal(b1-4)[Fuc(a1-3)]GlcNAc
# Outline: as §1
# [13] = target: Gal(b1-3)GlcNAc(b1-3)Gal(b1-4)[Fuc(a1-3)]GlcNAc(b1-6)[Gal(b1-3)GlcNAc(b1-3)]Gal(b1-4)Glc
# Outline: as §1
# [14] = target: Gal(b1-3)GlcNAc(b1-3)GalNAc
# Outline: as §1
# [15] = target: Gal(b1-3)GlcNAc(b1-6)Gal(b1-4)GlcNAc
# Outline: as §1
# [16] = target: Gal(b1-3)GlcNAc(b1-6)GalNAc
# Outline: as §1
# [17] = target: Gal(b1-3)GlcNAc(b1-6)[Gal(b1-3)]GalNAc
# Outline: as §1
# [18] = target: Gal(b1-3)GlcNAc6S
# Outline: as §1
# [19] = target: Gal(b1-3)[Fuc(a1-4)]GlcNAc
# Outline: as §1
# [20] = target: Gal(b1-3)[Fuc(a1-4)]GlcNAc(b1-2)Man
# Outline: as §1
# [21] = target: Gal(b1-3)[Fuc(a1-4)]GlcNAc(b1-2)Man(a1-3)[Gal(b1-3)[Fuc(a1-4)]GlcNAc(b1-2)Man(a1-6)]Man(b1-4)GlcNAc(b1-4)[Fuc(a1-6)]GlcNAc
# Outline: as §1
# [22] = target: Gal(b1-3)[Fuc(a1-4)]GlcNAc(b1-3)Gal(b1-3)[Fuc(a1-4)]GlcNAc
# Outline: as §1
# [23] = target: Gal(b1-3)[Fuc(a1-4)]GlcNAc(b1-3)Gal(b1-4)[Fuc(a1-3)]GlcNAc
# Outline: as §1
# [24] = target: Gal(b1-3)[Fuc(a1-4)]GlcNAc(b1-6)GalNAc
# Outline: as §1
# [25] = target: Gal(b1-3)[GlcNAc(b1-6)]GalNAc
# Outline: as §1
# [26] = target: Gal(b1-3)[Neu5Ac(a2-6)]GalNAc
# Outline: as §1
# [27] = target: Gal(b1-3)[Neu5Ac(a2-6)]GlcNAc(b1-4)Gal(b1-4)Glc
# Outline: as §1
# [28] = target: Gal(b1-3)[Neu5Ac(b2-6)]GalNAc
# Outline: as §1
# [29] = target: Gal(b1-4)Gal
# Outline: as §1
# [30] = target: Gal(b1-4)GalNAc(a1-3)[Fuc(a1-2)]Gal(b1-4)GlcNAc
# Outline: as §1
# [31] = target: Gal(b1-4)GalNAc(b1-3)[Fuc(a1-2)]Gal(b1-4)GlcNAc
# Outline: as §1
# [32] = target: Gal(b1-4)Glc
# Outline: as §1
# [33] = target: Gal(b1-4)Glc6S
# Outline: as §1
# [34] = target: Gal(b1-4)GlcNAc
# Outline: as §1
# [35] = target: Gal(b1-4)GlcNAc(a1-6)Gal(b1-4)GlcNAc
# Outline: as §1
# [36] = target: Gal(b1-4)GlcNAc(b1-2)Man
# Outline: as §1
# [37] = target: Gal(b1-4)GlcNAc(b1-2)Man(a1-3)Man(b1-4)GlcNAc(b1-4)GlcNAc
# Outline: as §1
binder,measurement,setting,value
B1,glycan array binding signal (z-score),[1],0.342
same,glycan array binding signal (z-score),[2],-0.568
same,glycan array binding signal (z-score),[3],-0.213
same,glycan array binding signal (z-score),[4],0.083
same,glycan array binding signal (z-score),[5],-0.598
same,glycan array binding signal (z-score),[6],2.3
same,glycan array binding signal (z-score),[7],-0.488
same,glycan array binding signal (z-score),[8],-0.345
same,glycan array binding signal (z-score),[9],-0.873
same,glycan array binding signal (z-score),[10],-0.099
same,glycan array binding signal (z-score),[11],-0.519
same,glycan array binding signal (z-score),[12],0.464
same,glycan array binding signal (z-score),[13],-0.364
same,glycan array binding signal (z-score),[14],0.155
same,glycan array binding signal (z-score),[15],-0.611
same,glycan array binding signal (z-score),[16],-0.097
same,glycan array binding signal (z-score),[17],0.864
same,glycan array binding signal (z-score),[18],-0.299
same,glycan array binding signal (z-score),[19],-0.351
same,glycan array binding signal (z-score),[20],-0.325
same,glycan array binding signal (z-score),[21],-0.504
same,glycan array binding signal (z-score),[22],-0.093
same,glycan array binding signal (z-score),[23],-0.287
same,glycan array binding signal (z-score),[24],-0.397
same,glycan array binding signal (z-score),[25],-0.334
same,glycan array binding signal (z-score),[26],-0.415
same,glycan array binding signal (z-score),[27],-0.639
same,glycan array binding signal (z-score),[28],-0.525
same,glycan array binding signal (z-score),[29],0.055
same,glycan array binding signal (z-score),[30],-0.354
same,glycan array binding signal (z-score),[31],-0.184
same,glycan array binding signal (z-score),[32],-0.165
same,glycan array binding signal (z-score),[33],2.95
same,glycan array binding signal (z-score),[34],-0.459
same,glycan array binding signal (z-score),[35],-0.191
same,glycan array binding signal (z-score),[36],-0.411
same,glycan array binding signal (z-score),[37],-0.354
